Experimental data: the supplement of paper PMC4466236
Over roughly 33,000 sequences, “E-score (dimensionless, -0.5 to 0.5)” has its median near -0.058; the highest 2% begin near 0.35. This is one part of the list.

Test system: MvaT
Assay: PBM 8-mer E-score (mean of HK and ME arrays) (E-score (dimensionless, -0.5 to 0.5)); higher = stronger relative binding preference; most listed sequences are background and not binding sites
Experimental: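 Protein binding microarray: GST-tagged full-length MvaT (P. aeruginosa PAO1) bound to two universal double-stranded 60-mer arrays (ME and HK), each with a constant 25-mer primer and a variable 35-mer region covering all 8-mers. The 8-mer E-score (rank-based, range -0.5 to 0.5, >0.45 = specific binding) is the mean of the two arrays.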

| Sequence | PBM 8-mer E-score |
| --- | --- |
| GCAGTCGC | -0.263 |
| AGGTACCC | -0.316 |
| CTTATAGC | 0.229 |
| CATCCAAC | 0.071 |
| ATGAGGCA | -0.149 |
| GACGTTGC | -0.0956 |
| ATATGCGC | 0.206 |
| ATATCATA | 0.254 |
| AACCCGGG | -0.174 |
| GAGGGTGA | -0.0963 |
| TAGCTAGA | -0.0721 |
| AAGTACGG | 0.0543 |
| CATAGTAG | 0.109 |
| CTATGAGC | -0.1 |
| AAGTCCCC | -0.191 |
| CAATGCTC | -0.203 |
| ATTGTAAG | 0.245 |
| CAAACTTG | 0.203 |
| CGGCACCG | -0.142 |
| AATGCCGC | -0.0147 |
| CACGACTC | -0.0476 |
| GAACAACC | -0.0763 |
| CAGAGGGC | -0.303 |
| ACTACAGG | -0.159 |
| ATGACGAA | 0.0517 |

| Sequence | PBM 8-mer E-score |
| --- | --- |
| CTACCAGC | -0.185 |
| ACTCGGAC | -0.21 |
| AGAAGCGG | -0.204 |
| CCGTGGGC | -0.244 |
| AGCCAGTC | -0.178 |
| AGACTGCC | -0.192 |
| CACCACCG | -0.0443 |
| ACTAAGCT | 0.00751 |
| AGTTTGAG | 0.102 |
| AGTATGAA | 0.172 |
| CGAACTCA | -0.0442 |
| GCAGCCAC | -0.276 |
| ATACTCCA | 0.188 |
| ACCCTGTG | -0.0652 |
| CCCGGTTA | 0.00633 |
| AACTCCAT | -0.00507 |
| GCGGTTCC | -0.178 |
| AAACGCGT | 0.083 |
| CAATCTCA | -0.0118 |
| CGGCCGCA | -0.237 |
| AAACCAGT | -0.00288 |
| ACGGAATC | 0.00389 |
| AAAAGTCG | 0.177 |
| GTGATTAA | 0.28 |
| GATTCTAC | -0.0548 |

| Sequence | PBM 8-mer E-score |
| --- | --- |
| GCACGACA | -0.187 |
| TCGAGAGA | -0.0572 |
| AACTGGCG | -0.101 |
| CGAGGGAC | -0.263 |
| CTACCTAG | -0.194 |
| AAGGTAAT | 0.102 |
| CTAAGCCC | -0.151 |
| GATGTCGA | -0.0845 |
| CTGCCCTA | -0.117 |
| AAGAATGG | 0.0719 |
| CGATCGTA | 0.0551 |
| AATATTTC | 0.404 |
| AGTTTGCG | 0.0821 |
| TAGGAGCA | -0.115 |
| CAGTTAGA | 0.077 |
| CGAGACCA | -0.228 |
| CGTCACAA | 0.201 |
| ATTCGTAA | 0.204 |
| GATACCGC | -0.109 |
| ATCATGTA | 0.117 |
| ATGTCATG | -0.0224 |
| GCAAGCAC | -0.248 |
| TATACACA | 0.262 |
| GCCTGAGA | -0.214 |
| AAGAACTC | -0.0276 |

| Sequence | PBM 8-mer E-score |
| --- | --- |
| CATGGGCG | -0.224 |
| CTAAGGTC | -0.164 |
| GGACGAGA | -0.216 |
| ATACGCTG | -0.0925 |
| ATTCTATA | 0.229 |
| TCCTATCA | -0.0448 |
| GGTAGCGA | -0.246 |
| CTCGTTCC | -0.186 |
| ACAAAATG | 0.0821 |
| CTACAAGC | -0.133 |
| GATTAGGC | -0.112 |
| ACGATTAC | -0.0273 |
| CATGGCCA | -0.276 |
| CCAGAGCA | -0.188 |
| CCTTAACC | -0.0489 |
| CGGATACA | 0.0887 |
| AATTGACG | 0.224 |
| GTTACGCA | 0.018 |
| CCGCATCA | -0.115 |
| CAGTGGAA | -0.0449 |
| AGATCCTG | -0.266 |
| CAGTACCA | -0.0173 |
| CTTCCTCA | -0.154 |
| AATTGATA | 0.339 |
| ATGACACA | 0.0646 |

| Sequence | PBM 8-mer E-score |
| --- | --- |
| AGCGGGAA | -0.185 |
| ATGATCGC | -0.037 |
| CCCCTCTC | -0.119 |
| AAGGTGTA | -0.0643 |
| CACTGCCA | -0.183 |
| GGGGGACC | -0.398 |
| CGATCTAA | -0.0538 |
| AACCCAGT | -0.0508 |
| AAAGCATT | -0.00799 |
| CCATGCAA | -0.0676 |
| GCGACTAC | -0.0345 |
| ACAACTCC | 0.0704 |
| ACTGGCTG | -0.194 |
| ATAATGGC | 0.234 |
| GTCGAAAA | 0.174 |
| AATGCTCC | -0.079 |
| AGCCTGGG | -0.228 |
| CAACCTAG | -0.119 |
| CAGTCCCA | -0.127 |
| AGAAGTTC | 0.223 |
| CTATACGC | 0.0769 |
| CTGCTTCC | -0.255 |
| AATTAACA | 0.333 |
| TGGCGACA | -0.132 |
| TAAAACTA | 0.316 |

| Sequence | PBM 8-mer E-score |
| --- | --- |
| ATCCGGGG | -0.24 |
| AAAGGTTC | -0.0305 |
| TCAGTGCA | 0.00999 |
| GAACACAC | -0.04 |
| CAGCAGGA | -0.308 |
| AACCGGGA | -0.146 |
| AAGGGAAG | -0.1 |
| CTTGGTCC | -0.233 |
| CACAACAG | -0.00307 |
| AGAATACG | 0.0799 |
| CAATGGTC | -0.157 |
| CAAATCCG | -0.0845 |
| GACCAGGC | -0.211 |
| ACGCTTAT | 0.18 |
| GAGTCCTA | -0.196 |
| ATAGGGTA | 0.131 |
| AACTCCAC | -0.05 |
| AAGGTCAA | -0.0518 |
| GCAGAGCA | -0.294 |
| CTTGCGAC | -0.139 |
| ATTTGGAA | 0.0956 |
| TAATTCCA | 0.311 |
| CTAGGATC | -0.252 |
| AGATTAGC | 0.0442 |
| GTGCAGAA | -0.0766 |

| Sequence | PBM 8-mer E-score |
| --- | --- |
| AGAGACAG | -0.0467 |
| TCGGTGCA | -0.118 |
| CTCACATA | 0.132 |
| TAGTGGAA | 0.171 |
| TGAAGGCA | -0.166 |
| CATGCATA | 0.00319 |
| GCTTAACA | 0.0832 |
| CGGCCCCA | -0.221 |
| ATCGAGCC | -0.173 |
| GCGCCGGA | -0.0918 |
| CGGCGATC | -0.156 |
| CCGGCAGA | -0.0459 |
| AGCTGTGA | 0.0387 |
| CTTTAGTA | 0.188 |
| AGAATGAT | 0.133 |
| AAATCCAG | -0.114 |
| GTTCGTAA | 0.0968 |
| GTTGTCCA | 0.0268 |
| AAGTACTC | 0.137 |
| CAATAGTA | 0.264 |
| CCGGGTCC | -0.276 |
| TAATACAA | 0.397 |
